# Assay results from the supplement of paper PMC3334620.
# Over roughly 33,000 sequences, “E-score (-0.5 to 0.5)” has its median near -0.012; the highest 2% begin near 0.27. The list shows a part of the results.
# Molecular target: T1, Vhr1 (UniProt P40522)
# T1 sequence: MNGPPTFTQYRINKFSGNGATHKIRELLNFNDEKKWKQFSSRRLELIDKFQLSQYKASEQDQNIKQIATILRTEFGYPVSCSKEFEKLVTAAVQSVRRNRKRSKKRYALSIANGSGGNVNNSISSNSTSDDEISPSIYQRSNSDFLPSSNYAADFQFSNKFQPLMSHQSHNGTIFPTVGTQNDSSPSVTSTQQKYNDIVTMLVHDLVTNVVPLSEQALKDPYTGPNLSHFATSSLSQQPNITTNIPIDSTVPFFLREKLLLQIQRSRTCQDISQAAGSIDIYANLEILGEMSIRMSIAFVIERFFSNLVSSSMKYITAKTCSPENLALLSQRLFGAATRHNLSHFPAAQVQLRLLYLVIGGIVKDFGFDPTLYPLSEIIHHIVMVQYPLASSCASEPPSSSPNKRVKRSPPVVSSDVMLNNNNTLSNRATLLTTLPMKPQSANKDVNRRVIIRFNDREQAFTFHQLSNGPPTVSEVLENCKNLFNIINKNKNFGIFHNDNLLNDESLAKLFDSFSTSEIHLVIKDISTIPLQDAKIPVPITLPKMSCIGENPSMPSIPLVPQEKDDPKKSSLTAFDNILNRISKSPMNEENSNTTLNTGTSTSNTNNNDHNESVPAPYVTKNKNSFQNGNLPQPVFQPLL
# Assay: PBM E-score (8-mer binding enrichment) (E-score (-0.5 to 0.5)); higher = stronger / more preferred TF binding; most listed sequences are background and not binding sites
# Details: protein concentration: 200 nM; construct: GST-full length
# Procedure, shortened: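 For each ungapped eight-base word taken together with its reverse complement, the Universal PBM Analysis Suite assigned an E-score. Binding data came from GST-tagged yeast transcription factors, applied at about 100-200 nM, on universal all-10-mer Agilent arrays made double-stranded by primer extension. Fluorescent anti-GST marked bound protein, and scans were normalised with masliner.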
row,Sequence,PBM E-score
1,GGAAGCAC,-0.0937
2,AGGGGAAT,0.0507
3,CGACTCAC,0.448
4,CATATCCC,0.14
5,CTAGAGAA,-0.267
6,CTTAGAGA,-0.118
7,CGCAAAAG,-0.227
8,TATTGCAA,0.0217
9,CGTACCTA,0.0178
10,CTTCATTC,-0.0777
11,ATATCTGG,-0.0831
12,ACTACGAC,0.217
13,CTCCGCAG,0.0786
14,ATACGTGG,-0.0166
15,GGTTTGAC,-0.145
16,CGTAGAAG,-0.164
17,TAAATCCA,-0.0361
18,CACCCTAC,0.0405
19,CTGGCGCC,0.0245
20,CGTGATCC,-0.0765
21,CTGAGCTC,-0.16
22,CGGGGAGA,-0.016
23,CCCTAAAG,-0.255
24,GCATATAA,0.0992
25,CTCGCTCA,0.0513

row,Sequence,PBM E-score
1,CTGCCTTA,-0.167
2,ATCGGATA,0.166
3,CACATTGC,0.166
4,CTTTACCC,-0.0776
5,AGGGTGAA,-0.0322
6,CATATTCA,0.0975
7,CGGCATGA,0.175
8,CACTGATC,0.0134
9,CGCCCTTA,-0.0736
10,CCTGAAAC,-0.0231
11,CTCTAGGC,-0.0392
12,CCGGACGG,-0.00881
13,GGAGACCA,0.0819
14,CTGCGTGC,-0.103
15,CCCTGCTC,0.0218
16,AAACAACT,0.00486
17,CGGTCAGC,0.152
18,AAATTAGC,-0.0946
19,CACCTCCC,0.0532
20,GTATATCA,0.102
21,GCCGAGCA,-0.178
22,AAAGAGGA,-0.129
23,AGAAGGGA,-0.271
24,GGAGGTTA,-0.166
25,ACGGCCGC,-0.0188

row,Sequence,PBM E-score
1,GGAAGGGA,-0.14
2,CGAGTACC,0.137
3,AGGCGCAC,0.0383
4,CACTTCAA,-0.161
5,AATGATAC,0.235
6,ATACTGTA,0.224
7,CATTTGCC,-0.281
8,GACGTCTA,-0.138
9,ACAACCGG,-0.024
10,TTCTGAAA,-0.116
11,GATGGTAA,-0.0006
12,CGACGTCG,0.241
13,GACAGAGA,-0.0231
14,GATTATCA,0.195
15,AGTTGGCG,0.0558
16,CGAAGTCG,0.155
17,ACCATAGG,0.0531
18,GAGTTAGA,-0.0441
19,AATAAAAA,-0.0688
20,CGCGTTTA,-0.245
21,AAGGAGAC,-0.0537
22,AGGTAGCA,-0.205
23,GGTAATAA,0.0807
24,AGCAATAT,-0.00859
25,AGAGTCAA,0.112

row,Sequence,PBM E-score
1,CTAATTAC,-0.045
2,CGAAGCCG,-0.109
3,ACATGCTA,-0.107
4,CATGGGAA,0.0669
5,ATGTACGG,-0.094
6,CTTGTGGA,0.046
7,AGTCGTAT,0.193
8,CGACCCTA,0.125
9,CTTAAATA,-0.219
10,GGTGACCA,-0.0328
11,GGCGGACA,0.0669
12,ACTCCCCG,0.199
13,AATTGCCG,-0.0903
14,GCCAGTTA,-0.0947
15,ACCCATTA,0.188
16,GCGTATCC,-0.0183
17,CAAGTGTG,-0.0159
18,AAGGGGCT,-0.144
19,GTGCTTGA,-0.138
20,CCCACGCG,-0.0177
21,CGAACACG,-0.153
22,GGCTTGGA,-0.137
23,CCGATGCG,-0.0452
24,CGGTACGA,0.026
25,AAAATACA,-0.0261

row,Sequence,PBM E-score
1,CGAATAGC,-0.0698
2,GAAGGGCA,-0.0417
3,CAGTCACC,0.307
4,ACCTTGTG,0.0783
5,ATAACAAA,-0.116
6,ACAACTTA,-0.0681
7,AGACAGGG,-0.213
8,GTCCGTTA,-0.0753
9,AAGTAGCA,-0.0101
10,CCTGTCAG,-0.0391
11,ACTGCGCC,0.00594
12,ATGGAACC,-0.0125
13,ACGGGTCT,-0.0315
14,AGGATTTC,-0.0679
15,CTTCCTGC,-0.157
16,CAGTGCTA,0.0185
17,AAATTAAG,-0.268
18,CTATAACC,0.0268
19,CCATGCGG,-0.0155
20,AGTTATTA,0.0476
21,AGCCTGTG,-0.061
22,ATCTCTAC,-0.0237
23,CACTGCCG,0.173
24,GACTTTAA,-0.278
25,GTCATGCA,0.257

row,Sequence,PBM E-score
1,CCCCCACG,-0.227
2,ACATCGGA,0.0601
3,ATGTCGGG,0.185
4,CAGATCGA,-0.0512
5,AGGCCGAG,-0.121
6,TGGCTGAA,0.101
7,GCACGAAC,0.0284
8,CCATCTAA,-0.233
9,GGAATCAC,0.388
10,AGAGCACG,0.00968
11,AACACTAA,-0.0789
12,AACAACTG,-0.0196
13,GGAAATGA,-0.0111
14,GATAAGGA,0.0196
15,AATCACGT,0.225
16,CGCTAGCA,-0.207
17,ATAATGCC,-0.046
18,TACTCTGA,-0.0444
19,CATTTCCC,0.0757
20,CGTCCTAA,0.0547
21,GCGTGCAC,-0.0456
22,CGCGTTAC,-0.0726
23,GACCTAGA,0.0117
24,CATAACGG,-0.047
25,GTTAAAAC,-0.295

row,Sequence,PBM E-score
1,TTCTAAAA,-0.325
2,AAGATGCC,-0.0209
3,CTCCAAAG,0.0215
4,AGGGGAAC,-0.0228
5,ACTTTAGC,-0.128
6,CCTACTCG,-0.00717
7,CATAAACC,0.209
8,AGGTATGG,0.182
9,ATGTCTAC,-0.00143
10,AAAAAACT,-0.192
11,GATACATC,0.224
12,ATGTTGGA,0.169
13,GCTTTCCA,-0.123
14,GGTTTTCA,-0.00994
15,GATGCAGA,0.038
16,CTAACGAG,0.114
17,CCTGAACG,-0.143
18,CCAACCGA,0.175
19,AGGCCCCA,-0.273
20,ACCCCTAA,-0.167
21,ACAAAGGT,-0.147
22,ACAAACGT,-0.05
